# The list shows a part of the results. The full chains were built here from the parent and the listed change. Values near 0.05 are background.
# B1: TEV protease; numbered along this chain (parent)
# chain: MGESLFKGPRDYNPISSSICHLTNESDGHTTSLYGIGFGPFIITNKHLFRRNNGTLVVQSLHGVFKVKDTTTLQQHLVDGRDMIIIRMPKDFPPFPQKLKFREPQREERICLVTTNFQTKSMSSMVSDTSCTFPSGDGIFWKHWIQTKDGQCGSPLVSTRDGFIVGIHSASNFTNTNNYFTSVPKNFMELLTNQEAQQWVSGWRLNADSVLWGGHKVFMVKPEEPFQPVKEATQL
# Variants of: B1
# Assay: raw area under fraction-flipped curve 0-4 h after induction (AUC4h, not background-subtracted), DNA-recorder readout of cleavage of the substrate (dimensionless); higher = more cleavage of the substrate by the protease variant
# Conditions: temperature: 34 °C; time window: 0-4 h after rhamnose induction
# Procedure: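 In vivo DNA recorder in E. coli TOP10(DE3) ΔrhaA at 34 °C. Each TEVp single-site mutant (parent TEVp 0) is paired with a single-site variant of the 7-mer TEVs (canonical ENLYFQ|S). The substrate sits between flexible linkers in a Bxb1-sfGFP-TEVs-SsrA fusion, so cleavage stabilises Bxb1 and speeds flipping of a recombination array, read by NGS. The value is the raw area under the fraction-flipped curve over 0-4 h after rhamnose induction (AUC4h), with ≥20 reads per time point. It is not background-subtracted; inactive controls average about 0.047.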
# 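Also: Bxb1 expression induced with 0.2% (w/v) L-rhamnose at OD600 near 0.5, cultures sampled hourly, flipped fraction per protease–substrate barcode pair counted by paired-end Illumina sequencing.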
Variant,area with substrate ENAYFQS,area with substrate ENCYFQS,area with substrate ENEYFQS,area with substrate ENFYFQS,area with substrate ENGYFQS,area with substrate ENHYFQS,area with substrate ENIYFQS,area with substrate ENKYFQS,area with substrate ENMYFQS,area with substrate ENNYFQS,area with substrate ENPYFQS,area with substrate ENQYFQS,area with substrate ENRYFQS,area with substrate ENSYFQS,area with substrate ENTYFQS,area with substrate ENVYFQS,area with substrate ENDYFQS,area with substrate ENWYFQS,area with substrate ENYYFQS
F92C,0.063,0.0609,0.0651,0.0651,0.0622,0.0319,0.101,0.0581,0.0883,0.0736,0.0795,0.0622,0.0639,0.0566,0.0693,0.0796,–,–,–
F133W,0.0688,0.0588,0.066,–,0.0609,0.0636,0.106,–,0.0796,0.059,–,0.0578,0.0571,0.0675,0.0625,0.0689,0.0481,0.0489,–
F133K,0.0587,0.0779,0.052,0.0657,0.0646,–,0.176,–,–,–,–,0.0711,0.0614,0.0608,0.0614,0.0667,0.0776,–,0.0693
P104G,0.0463,0.0543,0.0456,0.0558,0.0634,0.0562,–,0.0607,0.0497,0.0395,0.0481,–,0.0517,0.0516,0.0438,0.0514,0.0427,0.0417,0.0738
V126A,0.0581,0.126,0.0609,0.0677,0.037,0.0718,0.146,0.058,–,0.054,0.0584,0.0595,–,0.0674,0.0561,0.0781,0.0646,0.0513,0.069
V126Y,0.0553,0.0582,0.0966,0.0608,0.0707,–,0.122,0.0637,0.0735,–,–,0.0598,0.0801,0.0601,0.0709,0.075,0.0695,0.0555,0.0524
E107Y,0.0596,0.0629,–,–,–,0.0642,–,0.0621,–,–,–,0.0532,–,0.0563,0.0578,–,0.0602,–,–
S135R,0.0669,0.0593,0.0579,0.0615,0.0728,0.0436,0.0663,–,0.0552,0.0572,0.0682,0.0542,0.063,0.0575,0.0602,0.0658,0.0563,–,0.0681
Q105D,0.0663,0.0669,0.0608,0.0525,0.0557,0.071,0.112,0.0603,–,0.0551,0.0491,0.0574,0.0736,0.0653,0.0652,0.0687,0.0635,–,0.064
Q105R,0.0552,0.0578,0.056,0.0674,0.0719,0.0558,0.106,0.0605,0.0625,0.0714,0.0586,0.0676,0.0491,0.0617,–,0.0749,0.0572,0.0481,0.0596
M88A,0.0528,0.0696,0.0552,0.0638,0.0478,0.0623,–,–,0.0824,–,–,–,–,0.056,0.057,0.0789,0.0648,–,–
R81C,0.0491,0.0661,0.0722,0.0558,0.0567,0.0467,0.0797,0.0515,0.0709,–,0.0676,0.0572,0.0559,0.0629,0.0685,0.053,0.0611,–,0.0442
E108A,0.0495,0.104,0.054,0.0604,0.0459,0.0675,0.066,0.0601,–,–,–,0.0536,0.0582,0.0589,0.0552,0.0658,0.054,–,0.0553
K90W,0.0513,0.0745,0.0597,0.0402,0.0725,0.0678,0.143,0.0697,–,0.0645,–,0.0545,–,0.0625,0.0566,0.0847,–,0.039,0.057
S121H,0.0709,0.0643,0.0645,–,0.0619,0.0606,0.123,0.0669,0.0563,0.0355,–,0.0594,0.0521,–,0.0744,0.0479,0.0648,0.0601,0.0645
S121W,0.057,0.0654,0.0581,–,0.0494,0.0558,–,–,0.0576,0.0598,0.043,0.0526,–,0.0358,0.064,0.078,0.0571,–,0.0536
S121M,0.0571,–,0.0567,–,0.0521,0.0599,0.0985,–,0.0891,0.0657,0.063,0.0632,0.064,0.0579,–,0.065,0.0581,0.0514,–
T132A,0.0523,0.0698,0.068,–,–,0.0561,0.103,0.0234,0.0758,0.0581,0.0524,0.0607,0.0615,0.061,–,0.0678,0.0582,–,0.0566
T132I,0.0546,–,0.067,0.0596,0.0592,–,0.0351,0.0515,–,0.0611,0.0633,0.051,0.0607,0.063,–,–,0.0627,–,–
D82K,0.0573,0.0474,0.0464,0.0423,0.0586,0.0609,0.0663,–,0.0569,0.0627,–,–,0.0599,0.0467,0.0481,–,0.0531,–,0.067
S127G,0.0653,0.0646,0.0677,0.053,0.0576,0.0609,–,0.0495,–,0.0423,0.0733,0.0669,0.0311,0.0616,0.0615,0.0664,0.0605,0.0556,0.0569
C111M,0.0322,0.0642,0.0687,0.0481,0.0541,0.0613,0.103,–,–,0.06,0.0646,0.0709,0.0828,0.0673,0.0609,0.0752,0.102,–,–
C111S,0.062,0.0628,0.0663,0.108,0.0566,0.0523,–,0.0492,0.0678,0.0709,0.0453,0.0602,0.0635,0.0645,0.0598,0.0881,0.0652,0.0947,0.0595

# Reference: the supplement of paper PMC12217912
